# In the supplement of paper PMC8728848:
# The list shows a part of the results.
# B1: LecRKVI.2 (protein)
# chain: RTTTNFAFRGFNGNQSKIRIEGAAMIKPDGLLRLTDRKSNVTGTAFYHKPVRLLNRNSTNVTIRSFSTSFVFVIIPSSSSNKGFGFTFTLSPTPYRLNAGSAQYLGVFNKENNGDPRNHVFAVEFDTVQGSRDDNTDRIGNDIGLNYNSRTSDLQEPVVYYNNDDHNKKEDFQLESGNPIQALLEYDGATQMLNVTVYPARLGFKPTKPLISQHVPKLLEIVQEEMYVGFTASTGKGQSSAHYVMGWSFSSGGERPIADVLILSELPPPPPNKAKKEGLNS
# How the values were obtained:
# Assay in all cases: glycan array binding signal (z-score within array); higher = stronger binding
# Settings in all cases: glycan notation: IUPAC condensed, linker removed
# [1] = molecular target: Man(a1-2)Man(a1-3)[Man(a1-2)Man(a1-6)]Man(a1-6)[Man(a1-2)Man(a1-2)Man(a1-3)]Man
# In short: (§1)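 Glycan array data were curated from 3228 arrays in the Consortium for Functional Glycomics database and kept only where the protein sequence was available. Glycan names were converted to IUPAC-condensed notation, and columns mapping to the same glycan were averaged. The binding signal is a within-array Z-score, averaged across arrays of the same protein sequence at different concentrations or buffers and across linkers. Negative Z-scores can be read as non-binding.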
# [2] = molecular target: Man(a1-2)Man(a1-3)[Man(a1-2)Man(a1-6)]Man(a1-6)[Man(a1-2)Man(a1-2)Man(a1-3)]Man(b1-4)GlcNAc(b1-4)GlcNAc
# In short: as §1
# [3] = molecular target: Man(a1-2)Man(a1-3)[Man(a1-6)]Man(a1-6)[Man(a1-2)Man(a1-3)]Man(b1-4)GlcNAc(b1-4)GlcNAc
# In short: as §1
# [4] = molecular target: Man(a1-2)Man(a1-6)[Man(a1-3)]Man(a1-6)[Man(a1-2)Man(a1-2)Man(a1-3)]Man
# In short: as §1
# [5] = molecular target: Man(a1-2)Man(a1-6)[Man(a1-3)]Man(a1-6)[Man(a1-2)Man(a1-2)Man(a1-3)]Man(b1-4)GlcNAc(b1-4)GlcNAc
# In short: as §1
# [6] = molecular target: Man(a1-3)[Man(a1-6)]Man
# In short: as §1
# [7] = molecular target: Man(a1-3)[Man(a1-6)]Man(a1-6)[Man(a1-2)Man(a1-3)]Man(b1-4)GlcNAc(b1-4)GlcNAc
# In short: as §1
# [8] = molecular target: Man(a1-3)[Man(a1-6)]Man(a1-6)[Man(a1-3)]Man
# In short: as §1
# [9] = molecular target: Man(a1-3)[Man(a1-6)]Man(a1-6)[Man(a1-3)]Man(b1-4)GlcNAc(b1-4)GlcNAc
# In short: as §1
# [10] = molecular target: Man(a1-3)[Man(a1-6)]Man(b1-4)GlcNAc(b1-4)GlcNAc
# In short: as §1
# [11] = molecular target: Man(a1-3)[Man(a1-6)]Man(b1-4)GlcNAc(b1-4)[Fuc(a1-6)]GlcNAc
# In short: as §1
# [12] = molecular target: Man(a1-6)Man
# In short: as §1
# [13] = molecular target: Man(b1-4)GlcNAc
# In short: as §1
# [14] = molecular target: MurNAc(b1-4)GlcNAc
# In short: as §1
# [15] = molecular target: Neu5Ac(a2-3)Gal
# In short: as §1
# [16] = molecular target: Neu5Ac(a2-3)Gal(b1-3)GalNAc
# In short: as §1
# [17] = molecular target: Neu5Ac(a2-3)Gal(b1-3)GalNAc(b1-3)Gal(a1-4)Gal(b1-4)Glc
# In short: as §1
# [18] = molecular target: Neu5Ac(a2-3)Gal(b1-3)GalNAc(b1-4)Gal(b1-4)Glc
# In short: as §1
# [19] = molecular target: Neu5Ac(a2-3)Gal(b1-3)GalNAc(b1-4)[Neu5Ac(a2-3)]Gal(b1-4)Glc
# In short: as §1
# [20] = molecular target: Neu5Ac(a2-3)Gal(b1-3)GalNAc(b1-4)[Neu5Ac(a2-8)Neu5Ac(a2-3)]Gal(b1-4)Glc
# In short: as §1
# [21] = molecular target: Neu5Ac(a2-3)Gal(b1-3)GalNAc6S
# In short: as §1
# [22] = molecular target: Neu5Ac(a2-3)Gal(b1-3)GlcNAc
# In short: as §1
# [23] = molecular target: Neu5Ac(a2-3)Gal(b1-3)GlcNAc(b1-2)Man
# In short: as §1
# [24] = molecular target: Neu5Ac(a2-3)Gal(b1-3)GlcNAc(b1-2)Man(a1-3)[GlcNAc(b1-4)][Neu5Ac(a2-3)Gal(b1-3)GlcNAc(b1-2)Man(a1-6)]Man(b1-4)GlcNAc(b1-4)GlcNAc
# In short: as §1
# [25] = molecular target: Neu5Ac(a2-3)Gal(b1-3)GlcNAc(b1-2)Man(a1-3)[Neu5Ac(a2-3)Gal(b1-3)GlcNAc(b1-2)Man(a1-6)]Man(b1-4)GlcNAc(b1-4)GlcNAc
# In short: as §1
# [26] = molecular target: Neu5Ac(a2-3)Gal(b1-3)GlcNAc(b1-2)[Neu5Ac(a2-3)Gal(b1-3)GlcNAc(b1-4)]Man(a1-6)[Neu5Ac(a2-3)Gal(b1-3)GlcNAc(b1-2)Man(a1-3)]Man(b1-4)GlcNAc(b1-4)GlcNAc
# In short: as §1
# [27] = molecular target: Neu5Ac(a2-3)Gal(b1-3)GlcNAc(b1-3)Gal(b1-3)GlcNAc
# In short: as §1
# [28] = molecular target: Neu5Ac(a2-3)Gal(b1-3)GlcNAc(b1-3)Gal(b1-4)GlcNAc
# In short: as §1
# [29] = molecular target: Neu5Ac(a2-3)Gal(b1-3)GlcNAc(b1-3)GalNAc
# In short: as §1
# [30] = molecular target: Neu5Ac(a2-3)Gal(b1-3)GlcNAc(b1-6)GalNAc
# In short: as §1
# [31] = molecular target: Neu5Ac(a2-3)Gal(b1-3)GlcNAc6S
# In short: as §1
# [32] = molecular target: Neu5Ac(a2-3)Gal(b1-3)[Fuc(a1-4)]GlcNAc
# In short: as §1
# [33] = molecular target: Neu5Ac(a2-3)Gal(b1-3)[Fuc(a1-4)]GlcNAc(b1-3)Gal(b1-3)[Fuc(a1-4)]GlcNAc
# In short: as §1
# [34] = molecular target: Neu5Ac(a2-3)Gal(b1-3)[Fuc(a1-4)]GlcNAc(b1-3)Gal(b1-4)[Fuc(a1-3)]GlcNAc
# In short: as §1
# [35] = molecular target: Neu5Ac(a2-3)Gal(b1-3)[GlcNAc(b1-6)]GalNAc
# In short: as §1
# [36] = molecular target: Neu5Ac(a2-3)Gal(b1-3)[Neu5Ac(a2-6)]GalNAc
# In short: as §1
# [37] = molecular target: Neu5Ac(a2-3)Gal(b1-3)[Neu5Ac(a2-6)]GlcNAc(b1-3)[Fuc(a1-3)[Gal(b1-4)]GlcNAc(b1-6)]Gal(b1-4)Glc
# In short: as §1
# [38] = molecular target: Neu5Ac(a2-3)Gal(b1-3)]Neu5Ac(a2-3)Gal(b1-4)]GlcNAc
# In short: as §1
# [39] = molecular target: Neu5Ac(a2-3)Gal(b1-4)Glc
# In short: as §1
# [40] = molecular target: Neu5Ac(a2-3)Gal(b1-4)GlcNAc
# In short: as §1
# [41] = molecular target: Neu5Ac(a2-3)Gal(b1-4)GlcNAc(b1-2)Man
# In short: as §1
# [42] = molecular target: Neu5Ac(a2-3)Gal(b1-4)GlcNAc(b1-2)Man(a1-3)[GlcNAc(b1-4)][Neu5Ac(a2-3)Gal(b1-4)GlcNAc(b1-2)Man(a1-6)]Man(b1-4)GlcNAc(b1-4)GlcNAc
# In short: as §1
# [43] = molecular target: Neu5Ac(a2-3)Gal(b1-4)GlcNAc(b1-2)Man(a1-3)[Neu5Ac(a2-3)Gal(b1-4)GlcNAc(b1-2)Man(a1-6)]Man(b1-4)GlcNAc(b1-4)GlcNAc
# In short: as §1
# [44] = molecular target: Neu5Ac(a2-3)Gal(b1-4)GlcNAc(b1-2)Man(a1-3)[Neu5Ac(a2-3)Gal(b1-4)GlcNAc(b1-2)Man(a1-6)]Man(b1-4)GlcNAc(b1-4)[Fuc(a1-6)]GlcNAc
# In short: as §1
# [45] = molecular target: Neu5Ac(a2-3)Gal(b1-4)GlcNAc(b1-2)Man(a1-3)[Neu5Ac(a2-6)Gal(b1-4)GlcNAc(b1-2)Man(a1-6)]Man(b1-4)GlcNAc(b1-4)GlcNAc
# In short: as §1
binder,measurement,setting,value
B1,glycan array binding signal (z-score),[1],-0.426
same,glycan array binding signal (z-score),[2],-0.34
same,glycan array binding signal (z-score),[3],-0.161
same,glycan array binding signal (z-score),[4],-0.38
same,glycan array binding signal (z-score),[5],-0.299
same,glycan array binding signal (z-score),[6],-0.318
same,glycan array binding signal (z-score),[7],0.389
same,glycan array binding signal (z-score),[8],-0.373
same,glycan array binding signal (z-score),[9],0.086
same,glycan array binding signal (z-score),[10],-0.376
same,glycan array binding signal (z-score),[11],-0.127
same,glycan array binding signal (z-score),[12],-0.393
same,glycan array binding signal (z-score),[13],-0.283
same,glycan array binding signal (z-score),[14],-0.279
same,glycan array binding signal (z-score),[15],-0.315
same,glycan array binding signal (z-score),[16],-0.423
same,glycan array binding signal (z-score),[17],-0.388
same,glycan array binding signal (z-score),[18],-0.298
same,glycan array binding signal (z-score),[19],-0.292
same,glycan array binding signal (z-score),[20],-0.392
same,glycan array binding signal (z-score),[21],-0.373
same,glycan array binding signal (z-score),[22],-0.338
same,glycan array binding signal (z-score),[23],-0.335
same,glycan array binding signal (z-score),[24],-0.407
same,glycan array binding signal (z-score),[25],-0.077
same,glycan array binding signal (z-score),[26],2.24
same,glycan array binding signal (z-score),[27],-0.418
same,glycan array binding signal (z-score),[28],-0.343
same,glycan array binding signal (z-score),[29],-0.45
same,glycan array binding signal (z-score),[30],-0.315
same,glycan array binding signal (z-score),[31],-0.11
same,glycan array binding signal (z-score),[32],-0.318
same,glycan array binding signal (z-score),[33],-0.341
same,glycan array binding signal (z-score),[34],-0.388
same,glycan array binding signal (z-score),[35],-0.402
same,glycan array binding signal (z-score),[36],-0.325
same,glycan array binding signal (z-score),[37],-0.05
same,glycan array binding signal (z-score),[38],-0.434
same,glycan array binding signal (z-score),[39],1.51
same,glycan array binding signal (z-score),[40],-0.302
same,glycan array binding signal (z-score),[41],-0.25
same,glycan array binding signal (z-score),[42],-0.302
same,glycan array binding signal (z-score),[43],-0.323
same,glycan array binding signal (z-score),[44],-0.283
same,glycan array binding signal (z-score),[45],-0.129
